Binding signal data for 23 sequences are collected here from PMC7819943, “Rice protein-binding microarrays: a tool to detect cis-acting elements near promoter regions in rice”.

Some of the results follow.

The target in this experiment is T1, OsWOX13 (Oryza sativa, UniProt Q5QMM3 1-267).
T1 sequence: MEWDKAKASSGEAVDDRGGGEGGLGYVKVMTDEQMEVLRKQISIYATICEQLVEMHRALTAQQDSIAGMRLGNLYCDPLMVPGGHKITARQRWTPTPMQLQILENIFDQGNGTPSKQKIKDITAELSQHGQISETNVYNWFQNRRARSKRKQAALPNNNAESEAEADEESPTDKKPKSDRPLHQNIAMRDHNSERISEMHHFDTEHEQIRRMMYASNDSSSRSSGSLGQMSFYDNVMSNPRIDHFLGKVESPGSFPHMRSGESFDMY
Nature of the experiment: protein-binding microarray (RPBM); PBS, 2% BSA, 51.3 ng/ul salmon testes DNA, 50 uM zinc acetate, 200 nM TF, 25 C, 1 h; high values mean tight binding. Particulars: protein: recombinant; tags: N-terminal polyhistidine and DsRed monomer fusion (pET32a); label: CyDye5-dUTP incorporated in the synthesized complementary strand; 3' TTTTT single-stranded linker to array surface; dsDNA, one strand shown. Summed up:
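Binding signal is defined as the fluorescence intensity of each feature in arbitrary units, read on an Axon 4000B scanner. Transcription factors with N-terminal polyhistidine and DsRed fusions came from E. coli BL21-CodonPlus and were purified on Ni–NTA. They were incubated at 200 nM for 1 h at 25 °C on a custom Agilent array that had been made double-stranded with Cy5-dUTP, with 50 µM zinc acetate present, and the array was washed.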
For “AAGAAAATACTAATTAATCATGCACCAAACTCCATATCAACGGAGTCACCTAGTGCAG”, the binding signal is 7140 fluorescence intensity (a.u.).
To “GTGATTGAAATGGATCCTGGTCGGAAATGAATCCTGGTCGCGGAGTCACCTAGTGCAG” belongs 43700 fluorescence intensity (a.u.).
With “AATCGATGAAATTAAATCAATGTTTAATTTCATTACTTATCGGAGTCACCTAGTGCAG”, the binding signal is 8710 fluorescence intensity (a.u.).
In the case of “CAGTAATGAATTGCATCACCCAGTTACCCCATGAGACCGACGGAGTCACCTAGTGCAG”, the binding signal is 4370 fluorescence intensity (a.u.).
To “CACGATTGACCGTTACCTATAGTCCACACACATATAGGTACGGAGTCACCTAGTGCAG” belongs 13500 fluorescence intensity (a.u.).
To “TAACTCATTATTATAATTACTATTATTCTACTCTGATGAACGGAGTCACCTAGTGCAG” belongs 3740 fluorescence intensity (a.u.).
To “TATAATTAAATGAGGTGAGAAGTATGGATGCTAGTGTACACGGAGTCACCTAGTGCAG” belongs 11000 fluorescence intensity (a.u.).
Regarding “CATATGATGATTTGCTCAACGGTTACGCCAGAACGCACCTCGGAGTCACCTAGTGCAG”, the binding signal was 11800 fluorescence intensity (a.u.).
The result for “GCATAATTATTCTATGATTACTTTGATGCGTACGTGAATGCGGAGTCACCTAGTGCAG” reads 44800 fluorescence intensity (a.u.).
As to “ATTCAGATTGGCTGGTATTTGCGCGTACAATATATTATAACGGAGTCACCTAGTGCAG”, the binding signal was 6620 fluorescence intensity (a.u.).
Take “TTAATTGCTTTTAATTAATCGCAGTAGTTCATCTCGAAAACGGAGTCACCTAGTGCAG”: the binding signal is 39600 fluorescence intensity (a.u.).
The result for “TTGTTGTGAATTAACTGTTAGAACCAAAATGATTATATTGCGGAGTCACCTAGTGCAG” reads 4080 fluorescence intensity (a.u.); that for “GTTAAGTGGTACGAATTTGATTGCACTTGTAATGAACTTACGGAGTCACCTAGTGCAG”, 4670 fluorescence intensity (a.u.).
The result for “ACATTTAATGTGATGGAATTTTGAAGGGAACTAAACACTGCGGAGTCACCTAGTGCAG” reads 9580 fluorescence intensity (a.u.); that for “TAACCTTAATTAATTGATTAAATTACAAATATTCTAGCCCCGGAGTCACCTAGTGCAG”, 44000 fluorescence intensity (a.u.); that for “TGATTTGATTGGTTGATCCCTTCGAAAGTCAATTTGCATTCGGAGTCACCTAGTGCAG”, 50000 fluorescence intensity (a.u.).
The result for “AAATCCTAATTAAATCTCATCAAAACTACTGTAAATTCGGCGGAGTCACCTAGTGCAG” reads 5200 fluorescence intensity (a.u.); that for “CAAATTAATTTACTTTTCAACTATCTAAATTAATACTCAACGGAGTCACCTAGTGCAG”, 38300 fluorescence intensity (a.u.).
With “TCTGTAACATGTAGGTTCTAATTGATGCTTAGAAAATGTGCGGAGTCACCTAGTGCAG”, the binding signal is 6700 fluorescence intensity (a.u.).
The result for “CTTAACAACTGAACTGATTGAGACAGTAGATGAAATGGAACGGAGTCACCTAGTGCAG” reads 21400 fluorescence intensity (a.u.).
The result for “TGGCATTTATACTAATTTGACCGAGGGACCACATATCAGTCGGAGTCACCTAGTGCAG” reads 4830 fluorescence intensity (a.u.); that for “CTCCCTAATTTTAGAAACTAAACACAACAATTCTTATATCCGGAGTCACCTAGTGCAG”, 7510 fluorescence intensity (a.u.); that for “CAACCAAATTTCCAATTTTGGCGTGAACTAAACATAGCCTCGGAGTCACCTAGTGCAG”, 4170 fluorescence intensity (a.u.).
